According to publication PMC9911399, “Two distinct binding modes provide the RNA-binding protein RbFox with extraordinary sequence specificity”:
Residue numbers refer to the chain shown, from its start. The list shows a part of the results.

B1: GCCGCAU (DNA:RNA)
RNA: GGGAGACCGGAAUUCAGAUUGUCCGCCGCAUUUAAAUCCCGUCGUAGCCACCA
DNA 1: CAATCTGAATTCCGGTCTCCC
DNA 2: TGGTGGCTACGACGGGATT
B2: ACACCCG (DNA:RNA)
RNA: B1 RNA with G25A, C27A, G28C, A30C, U31G
DNA 1: CAATCTGAATTCCGGTCTCCC
DNA 2: TGGTGGCTACGACGGGATT
B3: GUUUCAA (DNA:RNA)
RNA: B1 RNA with C26U, C27U, G28U, U31A
DNA 1: CAATCTGAATTCCGGTCTCCC
DNA 2: TGGTGGCTACGACGGGATT
B4: UGACCUU (DNA:RNA)
RNA: B1 RNA with G25U, C26G, C27A, G28C, A30U
DNA 1: CAATCTGAATTCCGGTCTCCC
DNA 2: TGGTGGCTACGACGGGATT
B5: GGGCUAU (DNA:RNA)
RNA: B1 RNA with C26G, C27G, G28C, C29U
DNA 1: CAATCTGAATTCCGGTCTCCC
DNA 2: TGGTGGCTACGACGGGATT
B6: UGCCAUU (DNA:RNA)
RNA: B1 RNA with G25U, C26G, G28C, C29A, A30U
DNA 1: CAATCTGAATTCCGGTCTCCC
DNA 2: TGGTGGCTACGACGGGATT
B7: UAGUGUA (DNA:RNA)
RNA: GGGAGACCGGAAUUCAGAUUGUCCUAGUGUAUUAAAUCCCGUCGUAGCCACCA
DNA 1: CAATCTGAATTCCGGTCTCCC
DNA 2: TGGTGGCTACGACGGGATT
B8: CUCUAUA (DNA:RNA)
RNA: B7 RNA with U25C, A26U, G27C, G29A
DNA 1: CAATCTGAATTCCGGTCTCCC
DNA 2: TGGTGGCTACGACGGGATT
B9: AAGGGAG (DNA:RNA)
RNA: B7 RNA with U25A, U28G, U30A, A31G
DNA 1: CAATCTGAATTCCGGTCTCCC
DNA 2: TGGTGGCTACGACGGGATT

The binders below were run against T1, RBFOX1 RRM RbFoxmut (Fox-RRM*) (Homo sapiens, UniProt Q9NWB1 109-208, R118D;E147R;N151S;E152T) (assay: EMSA; HiTS-Eq, 1 nM pool, 10 min; buffer printed only for the single-RNA assays: 10 mM Tris pH 7.5, 150 mM NaCl, 3.4 mM EDTA, 0.001% NP-40, 30 C). Settings: tags: His6 N-terminal (pET28a); label: 5' 32P.
T1 sequence: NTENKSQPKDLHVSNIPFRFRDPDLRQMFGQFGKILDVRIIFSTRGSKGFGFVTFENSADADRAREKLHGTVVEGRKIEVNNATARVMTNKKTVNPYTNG
Procedure, shortened: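 Relative association constants, normalised to the cognate motif, were derived by comparing read counts of each RNA species with those of the control reaction. The RNA sequenced was the free fraction, separated by 8% native PAGE after a 10 min equilibration in 50 µL of 1 nM 5′-radiolabelled RNA (7 randomized nucleotides) with increasing concentrations of purified wild-type or mutant RbFox RRM.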

Binder | binding signal
B1 | 0.109 KA relative to UGCAUGU
B2 | 0.087 KA relative to UGCAUGU
B3 | 0.0891 KA relative to UGCAUGU
B4 | 0.0862 KA relative to UGCAUGU
B5 | 0.104 KA relative to UGCAUGU
B6 | 0.078 KA relative to UGCAUGU
B7 | 0.215 KA relative to UGCAUGU
B8 | 0.149 KA relative to UGCAUGU
B9 | 0.101 KA relative to UGCAUGU
